This is an account of results in the antibiotic and cytotoxicity screens of Wong et al. (2023).

Each structure is given as a SMILES string. The list shows a part of the results.

In this assay the test system is HSkMC (human skeletal muscle cells). Nature of the assay: cytotoxicity call (relative viability < 0.9). The note with it: 10 µM.
In the case of `COc1cccc(S(=O)(=O)N(C)C[C@@H]2Oc3cc(C#CCN(C)C)ccc3S(=O)(=O)N([C@H](C)CO)C[C@H]2C)c1`, the cytotoxicity call was “inactive”. For `C[C@@H]1CN([C@@H](C)CO)C(=O)c2cccc(NC(=O)CCCCCC(=O)Nc3ccccc3N)c2O[C@@H]1CN(C)Cc1ccc(-c2ccccc2)cc1` the value was “inactive”; for `C[C@H](CO)N1C[C@H](C)[C@@H](CN(C)Cc2ccc(Cl)c(Cl)c2)Oc2ccc(NC(=O)Nc3cccc4ccccc34)cc2C1=O`, “inactive”; for `CC(C)NC(=O)Nc1ccc2c(c1)C(=O)N([C@H](C)CO)C[C@H](C)[C@H](CN(C)S(=O)(=O)c1cn(C)cn1)OCCCC[C@H](C)O2`, “inactive”. For `O=C(C[C@H]1CC[C@@H]2[C@H](COC[C@@H](O)CN2S(=O)(=O)c2cccc(F)c2)O1)NCc1ccc2c(c1)OCO2` the value was “inactive”; for `NNC(=O)c1ccc(/C=N\O)nc1`, “inactive”. Consider `COc1ccc2c3c(n(c2c1)C)[C@@H](CO)N(C[C@]13CCN(CC1)C(=O)c1ccccn1)C(=O)c1ccccn1`, for which the cytotoxicity call was “inactive”. The entry for `CCC(CO)NCCNC(CC)CO.Cl.Cl` (stereo not given) is “inactive”. For `COCC(=O)N(C)C[C@H]1Oc2cc(C#CCC3CCCC3)ccc2S(=O)(=O)N([C@@H](C)CO)C[C@H]1C` the value was “inactive”.

On to `CCO[C@@H]1OC(C(=O)N2CCN(Cc3ccccc3)CC2)=C[C@H](c2ccc(Br)cc2)[C@H]1CCCOC(=O)NCCCCCC(=O)NO`, for which the cytotoxicity call is “inactive”. For `CS(=O)(=O)N1[C@H](C(=O)O)[C@@H](CO)[C@@H]2Cn3c(ccc(-c4ccc(F)cc4)c3=O)[C@@H]21` the value was “inactive”; for `COc1ccc(S(=O)(=O)Nc2ccc3c(c2)CC(=O)N([C@H](C)CO)C[C@H](C)[C@@H](CN(C)Cc2ccc(Cl)c(Cl)c2)O3)cc1`, “inactive”. For `C[C@@H]1CCCCO[C@H](CN(C)S(=O)(=O)c2ccc(F)cc2)[C@@H](C)CN([C@H](C)CO)C(=O)c2cc(NC(=O)Nc3cccc4ccccc34)ccc2O1` the value was “inactive”; for `Cc1noc(C)c1NC(=O)Nc1cccc2c1O[C@@H](CN(C)C(=O)Nc1ccc(C(F)(F)F)cc1)[C@@H](C)CN([C@@H](C)CO)C2=O`, “inactive”. For `COCCOC(=O)N1C(=O)[C@@]2(c3cc(C#CC4(O)CCCCCC4)ccc31)[C@H](c1ccc(OCCO)cc1)N1[C@H](c3ccccc3)[C@H](c3ccccc3)OC(=O)[C@H]1[C@@H]2C(=O)N1CCN(c2ncccn2)CC1` the value was “inactive”. On to `COc1ccc(NC(=O)Nc2ccc3c(c2)C(=O)N([C@H](C)CO)C[C@@H](C)[C@@H](CN(C)S(=O)(=O)c2c(C)noc2C)OCCCC[C@H](C)O3)cc1`, for which the cytotoxicity call is “inactive”. Regarding `CO[C@H]1CN(C)C(=O)c2cc(NS(C)(=O)=O)ccc2OC[C@@H](C)N(C(=O)C2CCOCC2)C[C@@H]1C`, the cytotoxicity call was “inactive”. The entry for `C[C@H]1CN([C@@H](C)CO)C(=O)c2cc(NC(=O)Nc3ccc4c(c3)OCO4)ccc2O[C@H]1CN(C)Cc1ccc(C(F)(F)F)cc1` is “inactive”; for `C[C@@H]1CN([C@@H](C)CO)C(=O)c2cc(C3=CCCC3)cnc2O[C@H]1CN(C)C(=O)c1ccc2c(c1)OCO2` it is “inactive”. The entry for `CCC(CC)[C@H](NC(C)=O)[C@@H]1[C@H](O)[C@@H](C(=O)O)C[C@H]1NC(=N)N` is “inactive”; for `C[C@H]1CCCCO[C@H](CN(C)S(=O)(=O)c2ccccc2)[C@@H](C)CN([C@@H](C)CO)C(=O)c2cc(NC(=O)NC3CCCCC3)ccc2O1` it is “inactive”; for `COC(=O)[C@@H]1[C@@H](CO)[C@@H]2Cn3c(ccc(-c4cncnc4)c3=O)[C@@H]2N1C(=O)C1CCC1` it is “inactive”. For `C[C@@H]1CN([C@H](C)CO)C(=O)c2cc(NC(=O)NC3CCCCC3)ccc2O[C@@H]1CN(C)C(=O)Nc1ccc(C(F)(F)F)cc1` the value was “inactive”. On to `Nc1ccn(C2CSC(CO)O2)c(=O)n1` (stereo not given), for which the cytotoxicity call is “inactive”. For `CO[C@H]1CN(C)C(=O)c2ccc(NS(=O)(=O)c3cn(C)cn3)cc2OC[C@H](C)N(Cc2cccc(F)c2)C[C@@H]1C`, the cytotoxicity call was “inactive”. On to `CC(=O)N(C)C[C@H]1Oc2ncc(C#C[C@H](C)O)cc2C(=O)N([C@H](C)CO)C[C@H]1C`, for which the cytotoxicity call was “inactive”. The entry for `C[C@@H]1CN([C@@H](C)CO)C(=O)c2c(c3ccccc3n2C)-c2ccccc2CO[C@H]1CN(C)S(=O)(=O)c1cn(C)cn1` is “inactive”. For `CC(C)(CO)C(O)C(=O)NCCCO` (stereo not given) the value was “inactive”; for `Cc1noc(C)c1S(=O)(=O)N(C)C[C@@H]1OCCCC[C@@H](C)Oc2ccc(NC(=O)Nc3ccc(F)cc3)cc2C(=O)N([C@@H](C)CO)C[C@H]1C`, “inactive”; for `COc1ccc(CN(C)C[C@H]2Oc3ccc(NS(=O)(=O)c4cn(C)cn4)cc3C(=O)N([C@H](C)CO)C[C@H]2C)cc1`, “inactive”. The entry for `COc1ccc2c3c(n(c2c1)C)[C@H](CO)N(Cc1cc(cc(c1)OC)OC)C[C@]13CCN(CC1)C(=O)CN1CCOCC1` is “inactive”; for `C=CCN(CC=C)S(=O)(=O)c1nnc[nH]1` it is “inactive”; for `COc1ccccc1CNC(=O)C[C@H]1CC[C@@H]2[C@H](COC[C@H](O)CN2C(=O)Nc2ccc(Cl)cc2)O1` it is “inactive”. Consider `CCCc1ccc2c(c1)CNCCC2`, for which the cytotoxicity call was “inactive”. The entry for `COc1ccc(S(=O)(=O)N(C)C[C@@H]2Oc3ccc(NC(=O)CCC(F)(F)F)cc3CC(=O)N([C@H](C)CO)C[C@H]2C)cc1` is “inactive”.

Regarding `COCC(=O)Nc1ccc2c(c1)C(=O)N(C)C[C@H](OC)[C@@H](C)CN(C(=O)Cc1cccnc1)[C@H](C)CO2`, the cytotoxicity call was “inactive”.

Take `CC1=NN(c2ccccc2)C(=O)C1`: the cytotoxicity call was “inactive”.

For the molecule `COc1ccc(NC(=O)N(C)C[C@@H]2Oc3cc(C#CCN(C)C)ccc3S(=O)(=O)N([C@@H](C)CO)C[C@@H]2C)cc1`, the cytotoxicity call was “inactive”.

For the molecule `O=C(Nc1nccs1)[C@@H]1[C@@H](CO)[C@@H]2Cn3c(cccc3=O)[C@@H]2N1C(=O)C1CC1`, the cytotoxicity call was “inactive”. For `C[C@@H]1CN([C@@H](C)CO)C(=O)CCCn2cc(nn2)CO[C@@H]1CN(C)S(=O)(=O)c1ccc(C#N)cc1` the value was “inactive”.
